Experimental data from paper PMC10578488.
No constants are given. Whether binding was seen depends on the method and setting. In cells and extracts the contact can be indirect. Some results given as binding are weak or reduced against the parent protein; the word gives no strength.

The chains behind the UniProt entries cited, without tags or fusion partners. Where a name states a change or a piece, a line headed by the entry shows the natural chain unless it says otherwise. A line that says so, or that is headed by a name, gives the form on record, which may keep a tag or linker. Residues count along the entry.
UniProt Q969L4: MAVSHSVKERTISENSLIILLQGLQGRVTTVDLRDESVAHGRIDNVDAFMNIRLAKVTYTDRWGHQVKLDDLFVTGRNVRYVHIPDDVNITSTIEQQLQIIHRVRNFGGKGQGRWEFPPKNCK
UniProt P83369: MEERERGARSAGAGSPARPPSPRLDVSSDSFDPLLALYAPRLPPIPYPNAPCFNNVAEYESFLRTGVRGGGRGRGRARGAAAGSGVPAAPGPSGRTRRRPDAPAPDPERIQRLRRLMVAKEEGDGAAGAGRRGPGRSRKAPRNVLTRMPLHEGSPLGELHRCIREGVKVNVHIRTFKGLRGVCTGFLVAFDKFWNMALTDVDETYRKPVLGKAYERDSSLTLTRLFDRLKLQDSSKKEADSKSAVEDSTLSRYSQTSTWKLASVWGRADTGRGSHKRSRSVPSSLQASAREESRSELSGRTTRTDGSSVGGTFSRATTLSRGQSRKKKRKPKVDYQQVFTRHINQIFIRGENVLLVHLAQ
MBP-168N (Lsm11 amino acids 1-168 fused amino-terminally to MBP): residues 1-168 of P83369
MBP-105N (Lsm11 amino acids 1-105 fused amino-terminally to MBP): residues 1-105 of P83369
MBP-65N (Lsm11 amino acids 1-65 fused amino-terminally to MBP): residues 1-65 of P83369
MBP-Δ40 (Lsm11 amino acids 41-169 fused amino-terminally to MBP): residues 41-169 of P83369
MBP-168N R72,74A (P83369, form named): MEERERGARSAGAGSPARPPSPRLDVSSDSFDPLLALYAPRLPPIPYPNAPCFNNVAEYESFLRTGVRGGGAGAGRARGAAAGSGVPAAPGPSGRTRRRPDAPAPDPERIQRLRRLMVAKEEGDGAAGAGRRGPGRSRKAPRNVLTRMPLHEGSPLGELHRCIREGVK
MBP-168N R72A (P83369, form named): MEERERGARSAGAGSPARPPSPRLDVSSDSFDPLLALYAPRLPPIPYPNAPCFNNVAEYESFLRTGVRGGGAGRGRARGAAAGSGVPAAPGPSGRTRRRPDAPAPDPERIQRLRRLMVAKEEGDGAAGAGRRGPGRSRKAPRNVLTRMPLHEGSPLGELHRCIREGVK
MBP-168N R74A (P83369, form named): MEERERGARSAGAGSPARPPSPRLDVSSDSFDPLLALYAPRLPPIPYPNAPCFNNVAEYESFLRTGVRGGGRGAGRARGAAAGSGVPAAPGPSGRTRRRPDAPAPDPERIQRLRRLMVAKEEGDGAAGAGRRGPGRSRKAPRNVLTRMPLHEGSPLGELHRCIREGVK
UniProt Q9BQA1: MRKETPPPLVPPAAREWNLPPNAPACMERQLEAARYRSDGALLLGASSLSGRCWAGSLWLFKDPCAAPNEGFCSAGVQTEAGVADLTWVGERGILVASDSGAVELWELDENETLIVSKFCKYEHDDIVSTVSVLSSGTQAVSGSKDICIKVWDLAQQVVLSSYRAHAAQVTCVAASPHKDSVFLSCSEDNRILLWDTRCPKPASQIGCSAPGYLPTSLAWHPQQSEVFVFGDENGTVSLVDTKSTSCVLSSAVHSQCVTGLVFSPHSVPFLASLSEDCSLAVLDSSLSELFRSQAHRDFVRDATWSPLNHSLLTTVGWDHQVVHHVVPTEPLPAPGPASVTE
UniProt O14744: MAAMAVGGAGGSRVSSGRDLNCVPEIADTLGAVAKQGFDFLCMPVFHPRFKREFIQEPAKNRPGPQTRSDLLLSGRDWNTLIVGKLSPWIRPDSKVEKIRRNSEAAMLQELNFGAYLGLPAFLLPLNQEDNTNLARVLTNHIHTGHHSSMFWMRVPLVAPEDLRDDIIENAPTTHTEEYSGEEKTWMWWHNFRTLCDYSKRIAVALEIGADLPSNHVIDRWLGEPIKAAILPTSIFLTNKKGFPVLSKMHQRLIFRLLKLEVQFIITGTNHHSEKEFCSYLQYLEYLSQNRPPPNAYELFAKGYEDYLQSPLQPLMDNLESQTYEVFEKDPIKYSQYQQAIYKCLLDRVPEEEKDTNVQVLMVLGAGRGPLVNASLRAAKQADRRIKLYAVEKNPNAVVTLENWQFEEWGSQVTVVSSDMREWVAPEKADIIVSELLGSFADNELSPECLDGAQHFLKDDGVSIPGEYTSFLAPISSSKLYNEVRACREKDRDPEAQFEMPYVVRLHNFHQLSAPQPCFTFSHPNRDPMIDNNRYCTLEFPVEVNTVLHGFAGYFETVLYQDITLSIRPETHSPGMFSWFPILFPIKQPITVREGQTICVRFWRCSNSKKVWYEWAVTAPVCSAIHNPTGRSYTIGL
UniProt P54105: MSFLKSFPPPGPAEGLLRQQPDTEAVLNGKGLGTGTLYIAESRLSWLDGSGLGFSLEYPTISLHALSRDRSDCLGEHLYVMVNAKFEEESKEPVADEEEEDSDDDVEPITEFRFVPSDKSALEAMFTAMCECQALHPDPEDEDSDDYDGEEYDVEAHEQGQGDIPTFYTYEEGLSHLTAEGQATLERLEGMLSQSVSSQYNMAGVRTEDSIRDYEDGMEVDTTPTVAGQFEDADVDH
UniProt Q61189: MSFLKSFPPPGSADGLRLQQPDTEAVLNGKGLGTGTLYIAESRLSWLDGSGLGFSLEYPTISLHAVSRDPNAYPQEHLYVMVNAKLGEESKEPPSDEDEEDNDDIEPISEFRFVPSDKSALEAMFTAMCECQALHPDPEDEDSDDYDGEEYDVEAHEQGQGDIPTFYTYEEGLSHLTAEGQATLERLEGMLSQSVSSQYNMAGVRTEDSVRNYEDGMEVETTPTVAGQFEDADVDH

Columns and labels:
[1] = molecular target: T1, Lsm10-MBP/Lsm11 heterodimer (wild-type, full-length Lsm11) (human) (UniProt Q969L4+P83369); test: co-IP; recombinant heterodimer incubated 1 h on ice with 750 µL HeLa or mouse myeloma cytoplasmic extract, precipitated with rabbit α10/11 serum on protein A beads; silver staining, mass spectrometry, western blotting; only the target purified
[2] = molecular target: T2, Lsm10/11ΔL heterodimer (MBP-Lsm10 with Lsm11 lacking the internal loop, amino acids 211-322) (human) (UniProt Q969L4+P83369); test: as above
[3] = molecular target: T1, Lsm10-MBP/Lsm11 heterodimer (wild-type, full-length Lsm11) (human); test: pull-down; MBP-Lsm10/Lsm11 heterodimers or MBP-fused Lsm11 fragments incubated with HeLa or mouse myeloma cytoplasmic extract (Fig. 5A: without or with SmE/F/G heterotrimer), collected on amylose beads; silver or Coomassie staining, western blotting; only the target purified
[4] = molecular target: MBP-105N (Lsm11 amino acids 1-105 fused amino-terminally to MBP) (human) (UniProt P83369); test: as above
[5] = molecular target: MBP-65N (Lsm11 amino acids 1-65 fused amino-terminally to MBP) (human) (UniProt P83369); test: as above
[6] = molecular target: MBP-Δ40 (Lsm11 amino acids 41-169 fused amino-terminally to MBP) (human) (UniProt P83369); test: as above
[7] = molecular target: T1, Lsm10-MBP/Lsm11 heterodimer (wild-type, full-length Lsm11) (human); test: co-IP; recombinant heterodimer incubated with mouse myeloma nuclear extract, precipitated with rabbit α10/11 serum on protein A beads; silver staining; only the target purified
[8] = molecular target: T2, Lsm10/11ΔL heterodimer (MBP-Lsm10 with Lsm11 lacking the internal loop, amino acids 211-322) (human); test: pull-down; MBP-Lsm10/Lsm11 heterodimers or MBP-fused Lsm11 fragments incubated with HeLa or mouse myeloma cytoplasmic extract (Fig. 5A: without or with SmE/F/G heterotrimer), collected on amylose beads; silver or Coomassie staining, western blotting; only the target purified
[9] = molecular target: MBP-168N (Lsm11 amino acids 1-168 fused amino-terminally to MBP) (human) (UniProt P83369); test: as above
MBP-168N R72,74A (human) = MBP-168N R72,74A (human) (UniProt P83369); test: as above
MBP-168N R72A (human) = MBP-168N R72A (human) (UniProt P83369); test: as above
MBP-168N R74A (human) = MBP-168N R74A (human) (UniProt P83369); test: as above

Substance | binding [1] | binding [2] | binding [3] | binding [4] | binding [5] | binding [6] | binding [7] | binding [8] | binding [9] | binding (MBP-168N R72,74A (human)) | binding (MBP-168N R72A (human)) | binding (MBP-168N R74A (human))
MEP50, endogenous, HeLa (from UniProt Q9BQA1 1-342) | binds | binds | binds | binds | no binding | binds |  |  |  |  |  | 
PRMT5, endogenous, HeLa (from UniProt O14744 1-637) (enzyme) | binds | binds | binds | binds | no binding | binds |  |  |  |  |  | 
pICln, endogenous, HeLa (from UniProt P54105 1-237) | binds | binds | binds | binds | no binding | binds |  |  |  |  |  | 
pICln, endogenous, mouse myeloma cells (from UniProt Q61189 1-236) |  | binds | binds | binds weakly |  |  | binds | binds | binds weakly | no binding | binds | binds weakly
